Laboratory results published in paper PMC5339933 (Chinese Medical Journal, 2017).

Target: D31V mutant NLRP3 pyrin domain (amino acids 1-112) (human, UniProt Q96P20 1-112, D31V)
Test: SPR

UniProt Q96P20, sequence (Q96P20 1-112 D31V): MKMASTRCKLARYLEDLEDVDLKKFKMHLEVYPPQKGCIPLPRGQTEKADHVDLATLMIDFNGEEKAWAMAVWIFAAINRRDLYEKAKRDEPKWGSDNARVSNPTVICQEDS

binding result: binds
B1: human apoptosis-associated speck-like protein pyrin domain (ASC PYD, […]) (domain or fragment)
chain: not shown
